# The other results are listed elsewhere or left out.
# Target: T1, OsWOX13 (Oryza sativa, UniProt Q5QMM3 1-267)
# T1 sequence: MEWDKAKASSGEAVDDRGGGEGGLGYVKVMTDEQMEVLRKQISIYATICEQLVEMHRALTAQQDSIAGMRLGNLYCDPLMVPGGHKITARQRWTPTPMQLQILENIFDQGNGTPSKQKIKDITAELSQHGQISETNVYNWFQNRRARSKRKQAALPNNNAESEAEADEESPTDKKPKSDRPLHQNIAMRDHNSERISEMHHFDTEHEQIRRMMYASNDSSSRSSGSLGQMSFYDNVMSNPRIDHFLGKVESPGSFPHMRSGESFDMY
# Experiment: protein-binding microarray (RPBM); PBS, 2% BSA, 51.3 ng/ul salmon testes DNA, 50 uM zinc acetate, 200 nM TF, 25 C, 1 h; high values mean tight binding
# Settings: protein: recombinant; tags: N-terminal polyhistidine and DsRed monomer fusion (pET32a); label: CyDye5-dUTP incorporated in the synthesized complementary strand; 3' TTTTT single-stranded linker to array surface; dsDNA, one strand shown
# How it was run: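 For the binding signal, per-feature fluorescence intensity was read in arbitrary units on an Axon 4000B scanner. Before scanning, a 2% BSA-blocked custom Agilent array made double-stranded with Cy5-dUTP was washed after 1 h at 25 °C with 200 nM protein and 50 µM zinc acetate. The proteins were Ni–NTA-purified transcription factors with N-terminal polyhistidine and DsRed fusions, expressed in E. coli BL21-CodonPlus.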
row,Sequence,binding signal
1,AGGGAGGAAGTAATTGATGTGGAAGAAAAGATAACTCATTCGGAGTCACCTAGTGCAG,4200 fluorescence intensity (a.u.)
2,AGTAGATTGAAAATGTTTCACTCGTTTAAATCGGGTGTTGCGGAGTCACCTAGTGCAG,49000 fluorescence intensity (a.u.)
3,AGTAATTGACATATAATAAATAATCATCTAAGACGACATACGGAGTCACCTAGTGCAG,37500 fluorescence intensity (a.u.)
4,AAGCAAAACTGATTCATTAGATTGAATCTGTGAATTCCCTCGGAGTCACCTAGTGCAG,21500 fluorescence intensity (a.u.)
5,ATCAAATGAGACAATTATTGATAAGGAGACACTCCATATTCGGAGTCACCTAGTGCAG,20200 fluorescence intensity (a.u.)
6,AATATGCAGATTAGCAAGTTAACGACAAAATGGAGATAACCGGAGTCACCTAGTGCAG,4420 fluorescence intensity (a.u.)
7,TGGCTTGATTGGCTTGACTCACATGGCCTTGTGGCCTCTCCGGAGTCACCTAGTGCAG,20000 fluorescence intensity (a.u.)
8,GGGGCGTGAATTAGATTTAACCTATATATCGGGGAGTCTACGGAGTCACCTAGTGCAG,4220 fluorescence intensity (a.u.)
9,CAATAATTCCCTTAAAATAGAATTATGTAGCCTATTGCTACGGAGTCACCTAGTGCAG,4220 fluorescence intensity (a.u.)
10,ATTTACATAATTATCATTTATTTTGTTATGAATTGTTTTACGGAGTCACCTAGTGCAG,15200 fluorescence intensity (a.u.)
11,TGAAAATTTTAATTTTGGTAGGTGCCCCTTTAGGAGGCCCCGGAGTCACCTAGTGCAG,6660 fluorescence intensity (a.u.)
12,GTTTGATTATTTGCTGCCTCCAGTGGGTTGGGTGTTCTTGCGGAGTCACCTAGTGCAG,39100 fluorescence intensity (a.u.)
13,TGTTTGCGATTGATTTGTACTACACAGTGGGTGCTTCTCCCGGAGTCACCTAGTGCAG,35300 fluorescence intensity (a.u.)
14,ACTCGAGATTTTAAGAATCAATTATCTTTCAGTGTACAATCGGAGTCACCTAGTGCAG,4170 fluorescence intensity (a.u.)
15,CTTAATTGCTAATACCTGATGAATATTAGAAATATACTAGCGGAGTCACCTAGTGCAG,38200 fluorescence intensity (a.u.)
16,GGAAATTTCAATCTAATGTCATAGGAAAACTTCCTCTCCTCGGAGTCACCTAGTGCAG,36400 fluorescence intensity (a.u.)
17,ACTACAAATAATAATTGGTTTGCATTGGTGTTAGAATAGGCGGAGTCACCTAGTGCAG,7200 fluorescence intensity (a.u.)
18,GTCTGACTGTTTTCCTTATTATATCATTGGATTGGTATCACGGAGTCACCTAGTGCAG,14600 fluorescence intensity (a.u.)
19,TGAAGTCCAAATCAAACTATCAATTATATATGCAATGGACCGGAGTCACCTAGTGCAG,13100 fluorescence intensity (a.u.)
20,CCAAGATGAATTGGAACTTTGCACACCAACCAAATAGGGGCGGAGTCACCTAGTGCAG,3580 fluorescence intensity (a.u.)
21,AGCCAATCACTCACTCACCAAGGTCTCCCACTCCTAGTCACGGAGTCACCTAGTGCAG,17000 fluorescence intensity (a.u.)

row,Sequence,binding signal
1,CTGTTCAGCTAATTACTGAAAATATGAGTGGTGGCAAGCCCGGAGTCACCTAGTGCAG,7260 fluorescence intensity (a.u.)
2,TCAGCACATGATTAAATCTATTAGAGAATAAATGGGAAATCGGAGTCACCTAGTGCAG,12600 fluorescence intensity (a.u.)
3,TAAATTAACTGTGTAAGGTCTGATCATATTTTCTTCTTAACGGAGTCACCTAGTGCAG,10600 fluorescence intensity (a.u.)
4,TCCAATAAACAGAGAGTGATGTGGGCTTTCTTTCTGTACACGGAGTCACCTAGTGCAG,10800 fluorescence intensity (a.u.)
5,ACAATTAATTAACTTCCATTATCTAAAATCCAAAGGTAAACGGAGTCACCTAGTGCAG,33600 fluorescence intensity (a.u.)
6,GCTAAAATTAGTAGTTTGATTGAAATTGGAACGATGTGACCGGAGTCACCTAGTGCAG,33800 fluorescence intensity (a.u.)
7,AAAACTATATAATTAGAAATACGGGGATGATAAGCTTTGGCGGAGTCACCTAGTGCAG,8120 fluorescence intensity (a.u.)
8,GTCCATTAATGGGAAAATAAGCTCATTTACGCGTGCAGTCCGGAGTCACCTAGTGCAG,6090 fluorescence intensity (a.u.)
9,ACGTAATGATATAAATTATACGATACAGATATCCTTAAAACGGAGTCACCTAGTGCAG,12600 fluorescence intensity (a.u.)
10,ATTAACTAACTCTGTGATTTATTGTTGTTAACGAAGTTAGCGGAGTCACCTAGTGCAG,17100 fluorescence intensity (a.u.)
11,ATGTGTGATTTGTTGCAATAGTAGATAGGAGCATAGATACCGGAGTCACCTAGTGCAG,15800 fluorescence intensity (a.u.)
12,GGATAAATAGATTTATATATTTAGAGTTGGACATAGTTATCGGAGTCACCTAGTGCAG,27600 fluorescence intensity (a.u.)
13,ACAAGATAAATTTCTTTCCTGATAACGCCGAGAAGTAGCTCGGAGTCACCTAGTGCAG,5540 fluorescence intensity (a.u.)
14,AATATTATTTATATGTAATTACATAAGTAATATGTAATTTCGGAGTCACCTAGTGCAG,9490 fluorescence intensity (a.u.)
15,CGCTAATTAGGAAGAGAAGAGATGAGGAGGATGAGGAGATCGGAGTCACCTAGTGCAG,29600 fluorescence intensity (a.u.)
16,TTTAAAATTTTAATTGAATTTTCTCTAAACCTCAGTATGACGGAGTCACCTAGTGCAG,39000 fluorescence intensity (a.u.)
17,TGCATCCAGATTGACAGTCCGCTCGTTCACACTGTCAAGACGGAGTCACCTAGTGCAG,22800 fluorescence intensity (a.u.)
18,TAATTTTAAATTATTTTAATAAGACGAGTGATTAAACAGTCGGAGTCACCTAGTGCAG,9500 fluorescence intensity (a.u.)
19,TTTTGGTAAATTTCTTGACAGTAGATGATGGTCATGTGTTCGGAGTCACCTAGTGCAG,4160 fluorescence intensity (a.u.)
20,CATTTATATTGATGTTAATGAATCTAAACATATATTCATTCGGAGTCACCTAGTGCAG,14100 fluorescence intensity (a.u.)
21,GTTCGCGTGATTAATCAAAGCCTATTCCTTGTCACTATGACGGAGTCACCTAGTGCAG,12400 fluorescence intensity (a.u.)

# — PMC7819943, “Rice protein-binding microarrays: a tool to detect cis-acting elements near promoter regions in rice”
